# Measured values: patent US20250352563A1, “Method and Use of Psilocybin in the Prevention and Treatment of Stroke” (Revive Therapeutics Ltd, priority 2022, published 2025)
# System: stroke rats (MCAo)
# Experiment: Pre-stroke i.c.v. treatment, neurological and locomotor tests in MCAo stroke rats
# Settings: 100 μM×20 μL i.c.v. 10-15 min prior to 60-min MCAo; tested D2; p=0.00438, t-test
# Description: Psilocybin or vehicle was given before or after the MCAo. For the pretreatment, animals were anesthetized. Psilocybin (100 μM×20 μL, n=7) or vehicle (saline, 20 μl, n=7) was administered intracerebroventricularly (i.c.v., AP, −0.8 mm; LV, −1.5 mm; DV, −3.5 mm) at 15 min before MCAo through a Hamilton microsyringe. The speed of injection was controlled by a syringe pump (Micro 4, WPI, Sarasota, FL). A subgroup of animals were used to examine the interaction of Psilocybin and ANA12. These animals received Psilocybin (100 μM×20 μL, i.c.v.) at 15 min before MCAo.
# As psilocybin was neuroprotective in primary neuronal culture, we next examined if a similar protective response can be found in experimental stroke animals. A total of 14 adult rats were used for this analysis. Psilocybin (100 μM×20 μL, n=7) or vehicle (saline, 20 μL, n=7) was delivered to the lateral ventricle (i.c.v., coordinates: AP:0.8 mm, Lat:1.5 mm, DV −3.5 mm) at 10-15 min prior to the a 60-min MCAo. Behavioral tests were conducted two days (or D2) after MCAo (FIG. 2A). […] Locomotoractivity was examined in infra-red activity chambers for one hour.
smiles,measurement,value
"CN(C)CCc1c[nH]c2cccc(OP(=O)(O)O)c12 [Psilocybin, 4-phosphoryloxy-N,N-dimethyltryptamine]",Bederson's neurological score,significantly decreased
